# Source: the supplement of paper PMC8728848
# The other results are listed elsewhere or left out.
# B1: Siglec-9 (Homo sapiens), Q9Y336 (protein)
# chain: MLLLLLPLLWGRERAEGQTSKLLTMQSSVTVQEGLCVHVPCSFSYPSHGWIYPGPVVHGYWFREGANTDQDAPVATNNPARAVWEETRDRFHLLGDPHTKNCTLSIRDARRSDAGRYFFKMEKGSIKWNYKHHRLSVNVTALTHRPNILIPGTLESGCPQNLTCSVPWACEQGTPPMISWIGTSVSPLDPSTTRSSVLTLIPQPQDHGTSLTCQVTFPGASVTTNKTVHLNVSYPPQNLTMTVFQGDGTVSTVLGNGSSLSLPEGQSLRLVCAVDAVDSNPPARLSLSWRGLTLCPSQPSNPGVLELPWVHLRDAAEFTCRAQNPLGSQQVYLNVSLQSKATSGVTQGVVGGAGATALVFLSFCVIFVVVRSCRKKSARPAAGVGDTGIEDANAVRGSASQGPLTEPWAEDSPPDQPPPASARSSVGEGELQYASLSFQMVKPWDSRGQEATDTEYSEIKIHR
# Tests used:
# Experiment in all cases: glycan array binding signal (z-score within array); higher = stronger binding
# Conditions in all cases: glycan notation: IUPAC condensed, linker removed; mutation: R120K
# Gal(a1-3)GalNAc = target: Gal(a1-3)GalNAc
# Summary of the method: (§1)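 Negative Z-scores can be read as non-binding. The Z-score is calculated within each array and then averaged across arrays of one protein sequence at different concentrations or buffers and across linkers. Arrays, 3228 in all, were curated from the Consortium for Functional Glycomics database and kept only where the protein sequence was available.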
# [1] = target: Gal(a1-3)[Gal(a1-4)]Gal(b1-4)GlcNAc
# Summary of the method: as §1
# [2] = target: Gal(a1-4)Gal(b1-3)GlcNAc(b1-2)Man(a1-3)[Gal(a1-4)Gal(b1-3)GlcNAc(b1-2)Man(a1-6)]Man(b1-4)GlcNAc(b1-4)GlcNAc
# Summary of the method: as §1
# Gal(a1-4)Gal(b1-4)Glc = target: Gal(a1-4)Gal(b1-4)Glc
# Summary of the method: as §1
# Gal(a1-4)Gal(b1-4)GlcNAc = target: Gal(a1-4)Gal(b1-4)GlcNAc
# Summary of the method: as §1
# [3] = target: Gal(a1-4)Gal(b1-4)GlcNAc(b1-2)Man(a1-3)[Gal(a1-4)Gal(b1-4)GlcNAc(b1-2)Man(a1-6)]Man(b1-4)GlcNAc(b1-4)GlcNAc
# Summary of the method: as §1
# [4] = target: Gal(a1-4)Gal(b1-4)GlcNAc(b1-3)Gal(b1-4)Glc
# Summary of the method: as §1
# Gal(a1-4)GlcNAc = target: Gal(a1-4)GlcNAc
# Summary of the method: as §1
# Gal(a1-6)Glc = target: Gal(a1-6)Glc
# Summary of the method: as §1
# Gal(b1-2)Gal = target: Gal(b1-2)Gal
# Summary of the method: as §1
# Gal(b1-3)Gal = target: Gal(b1-3)Gal
# Summary of the method: as §1
# Gal(b1-3)Gal(b1-4)GlcNAc = target: Gal(b1-3)Gal(b1-4)GlcNAc
# Summary of the method: as §1
# Gal(b1-3)GalNAc = target: Gal(b1-3)GalNAc
# Summary of the method: as §1
# [5] = target: Gal(b1-3)GalNAc(a1-3)[Fuc(a1-2)]Gal(b1-4)Glc
# Summary of the method: as §1
# [6] = target: Gal(b1-3)GalNAc(a1-3)[Fuc(a1-2)]Gal(b1-4)GlcNAc
# Summary of the method: as §1
# Gal(b1-3)GalNAc(b1-3)Gal = target: Gal(b1-3)GalNAc(b1-3)Gal
# Summary of the method: as §1
# [7] = target: Gal(b1-3)GalNAc(b1-3)Gal(a1-4)Gal(b1-4)Glc
# Summary of the method: as §1
# [8] = target: Gal(b1-3)GalNAc(b1-4)Gal(b1-4)Glc
# Summary of the method: as §1
# [9] = target: Gal(b1-3)GalNAc(b1-4)[Neu5Ac(a2-3)]Gal(b1-4)Glc
# Summary of the method: as §1
# Gal(b1-3)GlcNAc = target: Gal(b1-3)GlcNAc
# Summary of the method: as §1
# [10] = target: Gal(b1-3)GlcNAc(a1-3)Gal(b1-4)GlcNAc
# Summary of the method: as §1
# [11] = target: Gal(b1-3)GlcNAc(a1-6)Gal(b1-4)GlcNAc
# Summary of the method: as §1
# Gal(b1-3)GlcNAc(b1-2)Man = target: Gal(b1-3)GlcNAc(b1-2)Man
# Summary of the method: as §1
# [12] = target: Gal(b1-3)GlcNAc(b1-2)Man(a1-3)[Gal(b1-3)GlcNAc(b1-2)Man(a1-6)]Man(b1-4)GlcNAc(b1-4)GlcNAc
# Summary of the method: as §1
# [13] = target: Gal(b1-3)GlcNAc(b1-2)Man(a1-3)[Gal(b1-3)GlcNAc(b1-2)Man(a1-6)]Man(b1-4)GlcNAc(b1-4)[Fuc(a1-6)]GlcNAc
# Summary of the method: as §1
# [14] = target: Gal(b1-3)GlcNAc(b1-2)Man(a1-3)[GlcNAc(b1-4)][Gal(b1-3)GlcNAc(b1-2)Man(a1-6)]Man(b1-4)GlcNAc(b1-4)GlcNAc
# Summary of the method: as §1
# [15] = target: Gal(b1-3)GlcNAc(b1-2)[Gal(b1-3)GlcNAc(b1-6)]Man(a1-6)[Gal(b1-3)GlcNAc(b1-2)Man(a1-3)]Man(b1-4)GlcNAc(b1-4)GlcNAc
# Summary of the method: as §1
# [16] = target: Gal(b1-3)GlcNAc(b1-3)Gal(b1-3)GlcNAc
# Summary of the method: as §1
# [17] = target: Gal(b1-3)GlcNAc(b1-3)Gal(b1-4)Glc
# Summary of the method: as §1
# [18] = target: Gal(b1-3)GlcNAc(b1-3)Gal(b1-4)GlcNAc
# Summary of the method: as §1
# [19] = target: Gal(b1-3)GlcNAc(b1-3)Gal(b1-4)GlcNAc(b1-2)Man(a1-3)[Gal(b1-3)GlcNAc(b1-3)Gal(b1-4)GlcNAc(b1-2)Man(a1-6)]Man(b1-4)GlcNAc(b1-4)GlcNAc
# Summary of the method: as §1
# [20] = target: Gal(b1-3)GlcNAc(b1-3)Gal(b1-4)GlcNAc(b1-2)[Gal(b1-3)GlcNAc(b1-3)Gal(b1-4)GlcNAc(b1-6)]Man(a1-6)[Gal(b1-3)GlcNAc(b1-3)Gal(b1-4)GlcNAc(b1-2)Man(a1-3)]Man(b1-4)GlcNAc(b1-4)[Fuc(a1-6)]GlcNAc
# Summary of the method: as §1
# [21] = target: Gal(b1-3)GlcNAc(b1-3)Gal(b1-4)GlcNAc(b1-3)Gal(b1-4)GlcNAc(b1-2)[Gal(b1-3)GlcNAc(b1-3)Gal(b1-4)GlcNAc(b1-3)Gal(b1-4)GlcNAc(b1-6)]Man(a1-6)[Gal(b1-3)GlcNAc(b1-3)Gal(b1-4)GlcNAc(b1-3)Gal(b1-4)GlcNAc(b1-2)Man(a1-3)]Man(b1-4)GlcNAc(b1-4)[Fuc(a1-6)]GlcNAc
# Summary of the method: as §1
# [22] = target: Gal(b1-3)GlcNAc(b1-3)Gal(b1-4)GlcNAc(b1-6)[Gal(b1-3)GlcNAc(b1-3)]Gal(b1-4)Glc
# Summary of the method: as §1
# [23] = target: Gal(b1-3)GlcNAc(b1-3)Gal(b1-4)[Fuc(a1-3)]GlcNAc
# Summary of the method: as §1
# [24] = target: Gal(b1-3)GlcNAc(b1-3)Gal(b1-4)[Fuc(a1-3)]GlcNAc(b1-6)[Gal(b1-3)GlcNAc(b1-3)]Gal(b1-4)Glc
# Summary of the method: as §1
# [25] = target: Gal(b1-3)GlcNAc(b1-3)GalNAc
# Summary of the method: as §1
# [26] = target: Gal(b1-3)GlcNAc(b1-6)Gal(b1-4)GlcNAc
# Summary of the method: as §1
binder,measurement,setting,value
B1,glycan array binding signal (z-score),Gal(a1-3)GalNAc,-0.066
same,glycan array binding signal (z-score),[1],0.327
same,glycan array binding signal (z-score),[2],-0.104
same,glycan array binding signal (z-score),Gal(a1-4)Gal(b1-4)Glc,-0.209
same,glycan array binding signal (z-score),Gal(a1-4)Gal(b1-4)GlcNAc,-0.186
same,glycan array binding signal (z-score),[3],0.834
same,glycan array binding signal (z-score),[4],-0.019
same,glycan array binding signal (z-score),Gal(a1-4)GlcNAc,-0.515
same,glycan array binding signal (z-score),Gal(a1-6)Glc,-0.186
same,glycan array binding signal (z-score),Gal(b1-2)Gal,-0.185
same,glycan array binding signal (z-score),Gal(b1-3)Gal,0.201
same,glycan array binding signal (z-score),Gal(b1-3)Gal(b1-4)GlcNAc,-0.032
same,glycan array binding signal (z-score),Gal(b1-3)GalNAc,-0.322
same,glycan array binding signal (z-score),[5],-0.613
same,glycan array binding signal (z-score),[6],-0.09
same,glycan array binding signal (z-score),Gal(b1-3)GalNAc(b1-3)Gal,-0.547
same,glycan array binding signal (z-score),[7],0.024
same,glycan array binding signal (z-score),[8],0.019
same,glycan array binding signal (z-score),[9],-0.082
same,glycan array binding signal (z-score),Gal(b1-3)GlcNAc,-0.526
same,glycan array binding signal (z-score),[10],-0.475
same,glycan array binding signal (z-score),[11],-0.242
same,glycan array binding signal (z-score),Gal(b1-3)GlcNAc(b1-2)Man,-0.121
same,glycan array binding signal (z-score),[12],-0.172
same,glycan array binding signal (z-score),[13],-0.25
same,glycan array binding signal (z-score),[14],-0.105
same,glycan array binding signal (z-score),[15],0.574
same,glycan array binding signal (z-score),[16],-0.405
same,glycan array binding signal (z-score),[17],-0.499
same,glycan array binding signal (z-score),[18],-0.688
same,glycan array binding signal (z-score),[19],-0.671
same,glycan array binding signal (z-score),[20],0.218
same,glycan array binding signal (z-score),[21],0.24
same,glycan array binding signal (z-score),[22],-0.252
same,glycan array binding signal (z-score),[23],-0.249
same,glycan array binding signal (z-score),[24],-0.491
same,glycan array binding signal (z-score),[25],-0.39
same,glycan array binding signal (z-score),[26],-0.113
